# From the supplement of paper PMC8728848
# Some of the results follow.
# What was measured:
# Assay in all cases: glycan array binding signal (z-score within array); higher = stronger binding
# Details in all cases: glycan notation: IUPAC condensed, linker removed
# [1] = biological target: Fuc(a1-2)[Gal(a1-4)]Gal(b1-4)GlcNAc
# Summary of the method: (§1)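 Glycan array data came from 3228 arrays in the Consortium for Functional Glycomics database, and only arrays with an available protein sequence were kept. Glycan names were put into IUPAC-condensed notation, and columns mapping to the same glycan were averaged. The binding signal is a within-array Z-score, averaged across arrays of one protein sequence run at different concentrations or buffers and across linkers. A negative Z-score can be read as non-binding.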
# [2] = biological target: Fuc(a1-2)[GalNAc(a1-3)]Gal
# Summary of the method: as §1
# [3] = biological target: Fuc(a1-2)[GalNAc(a1-3)]Gal(b1-3)GalNAc(a1-3)[Fuc(a1-2)]Gal(b1-4)GlcNAc
# Summary of the method: as §1
# [4] = biological target: Fuc(a1-2)[GalNAc(a1-3)]Gal(b1-3)GalNAc(b1-3)Gal(a1-4)Gal(b1-4)Glc
# Summary of the method: as §1
# [5] = biological target: Fuc(a1-2)[GalNAc(a1-3)]Gal(b1-3)GlcNAc
# Summary of the method: as §1
# [6] = biological target: Fuc(a1-2)[GalNAc(a1-3)]Gal(b1-3)GlcNAc(b1-2)Man(a1-3)[Fuc(a1-2)[GalNAc(a1-3)]Gal(b1-3)GlcNAc(b1-2)Man(a1-6)]Man(b1-4)GlcNAc(b1-4)GlcNAc
# Summary of the method: as §1
# [7] = biological target: Fuc(a1-2)[GalNAc(a1-3)]Gal(b1-3)GlcNAc(b1-2)Man(a1-3)[Fuc(a1-2)[GalNAc(a1-3)]Gal(b1-3)GlcNAc(b1-2)Man(a1-6)]Man(b1-4)GlcNAc(b1-4)[Fuc(a1-6)]GlcNAc
# Summary of the method: as §1
# [8] = biological target: Fuc(a1-2)[GalNAc(a1-3)]Gal(b1-3)GlcNAc(b1-3)GalNAc
# Summary of the method: as §1
# [9] = biological target: Fuc(a1-2)[GalNAc(a1-3)]Gal(b1-3)GlcNAc(b1-6)GalNAc
# Summary of the method: as §1
# [10] = biological target: Fuc(a1-2)[GalNAc(a1-3)]Gal(b1-4)Glc
# Summary of the method: as §1
# [11] = biological target: Fuc(a1-2)[GalNAc(a1-3)]Gal(b1-4)GlcNAc
# Summary of the method: as §1
# [12] = biological target: Fuc(a1-2)[GalNAc(a1-3)]Gal(b1-4)GlcNAc(b1-2)Man
# Summary of the method: as §1
# [13] = biological target: Fuc(a1-2)[GalNAc(a1-3)]Gal(b1-4)GlcNAc(b1-2)Man(a1-3)[Fuc(a1-2)[GalNAc(a1-3)]Gal(b1-4)GlcNAc(b1-2)Man(a1-6)]Man(b1-4)GlcNAc(b1-4)GlcNAc
# Summary of the method: as §1
# [14] = biological target: Fuc(a1-2)[GalNAc(a1-3)]Gal(b1-4)GlcNAc(b1-2)Man(a1-3)[Fuc(a1-2)[GalNAc(a1-3)]Gal(b1-4)GlcNAc(b1-2)Man(a1-6)]Man(b1-4)GlcNAc(b1-4)[Fuc(a1-6)]GlcNAc
# Summary of the method: as §1
# [15] = biological target: Fuc(a1-2)[GalNAc(a1-3)]Gal(b1-4)GlcNAc(b1-3)Gal(b1-4)GlcNAc
# Summary of the method: as §1
# [16] = biological target: Fuc(a1-2)[GalNAc(a1-3)]Gal(b1-4)GlcNAc(b1-3)Gal(b1-4)GlcNAc(b1-3)Gal(b1-4)GlcNAc
# Summary of the method: as §1
# [17] = biological target: Fuc(a1-2)[GalNAc(a1-3)]Gal(b1-4)GlcNAc(b1-3)GalNAc
# Summary of the method: as §1
# [18] = biological target: Fuc(a1-2)[GalNAc(a1-3)]Gal(b1-4)GlcNAc(b1-3)[Fuc(a1-2)[GalNAc(a1-3)]Gal(b1-4)GlcNAc(b1-6)]GalNAc
# Summary of the method: as §1
# [19] = biological target: Fuc(a1-2)[GalNAc(a1-3)]Gal(b1-4)GlcNAc(b1-6)GalNAc
# Summary of the method: as §1
# [20] = biological target: Fuc(a1-2)[GalNAc(a1-3)]Gal(b1-4)[Fuc(a1-3)]GlcNAc
# Summary of the method: as §1
# [21] = biological target: Fuc(a1-2)[GalNAc(a1-3)]Gal(b1-4)[Fuc(a1-3)]GlcNAc(b1-3)GalNAc
# Summary of the method: as §1
# [22] = biological target: Fuc(a1-2)[GalNAc(a1-4)]Gal(b1-4)GlcNAc
# Summary of the method: as §1
# [23] = biological target: Fuc(a1-2)[GalNAc(b1-3)]Gal
# Summary of the method: as §1
# Fuc(a1-3)GlcNAc = biological target: Fuc(a1-3)GlcNAc
# Summary of the method: as §1
# [24] = biological target: Fuc(a1-3)[Gal(b1-4)]Glc6S
# Summary of the method: as §1
# [25] = biological target: Fuc(a1-3)[Gal(b1-4)]GlcNAc
# Summary of the method: as §1
# [26] = biological target: Fuc(a1-3)[Gal(b1-4)]GlcNAc(b1-2)Man
# Summary of the method: as §1
# [27] = biological target: Fuc(a1-3)[Gal(b1-4)]GlcNAc(b1-2)Man(a1-3)[Fuc(a1-3)[Gal(b1-4)]GlcNAc(b1-2)Man(a1-6)]Man(b1-4)GlcNAc(b1-4)GlcNAc
# Summary of the method: as §1
# [28] = biological target: Fuc(a1-3)[Gal(b1-4)]GlcNAc(b1-2)Man(a1-3)[Fuc(a1-3)[Gal(b1-4)]GlcNAc(b1-2)Man(a1-6)]Man(b1-4)GlcNAc(b1-4)[Fuc(a1-6)]GlcNAc
# Summary of the method: as §1
# [29] = biological target: Fuc(a1-3)[Gal(b1-4)]GlcNAc(b1-3)Gal(b1-3)[Fuc(a1-4)]GlcNAc
# Summary of the method: as §1
# [30] = biological target: Fuc(a1-3)[Gal(b1-4)]GlcNAc(b1-3)Gal(b1-4)[Fuc(a1-3)]GlcNAc
# Summary of the method: as §1
# [31] = biological target: Fuc(a1-3)[Gal(b1-4)]GlcNAc(b1-3)Gal(b1-4)[Fuc(a1-3)]GlcNAc(b1-3)Gal(b1-4)[Fuc(a1-3)]GlcNAc
# Summary of the method: as §1
# [32] = biological target: Fuc(a1-3)[Gal(b1-4)]GlcNAc(b1-3)GalNAc
# Summary of the method: as §1
# [33] = biological target: Fuc(a1-3)[Gal(b1-4)]GlcNAc(b1-6)GalNAc
# Summary of the method: as §1
# [34] = biological target: Fuc(a1-3)[Gal(b1-4)]GlcNAc(b1-6)[Gal(b1-3)GlcNAc(b1-3)]Gal(b1-4)Glc
# Summary of the method: as §1
# [35] = biological target: Fuc(a1-3)[Gal(b1-4)]GlcNAc6S
# Summary of the method: as §1
# [36] = biological target: Fuc(a1-3)[Gal3S(b1-4)]Glc
# Summary of the method: as §1
# [37] = biological target: Fuc(a1-3)[Gal3S(b1-4)]GlcNAc
# Summary of the method: as §1
binder,measurement,setting,value
GS13846A-bth-444-19-444 (Bacteroides thetaiotaomicron) (protein) SCENEFDVSDKADSLISVTVNTLNNQAAYNVGETAQAELWIQRGGLKDASGKVQFVVDPLLLDSLNQEDKTNYELLPENCYEMTNTEFTVDKNELCGYITYHPEKILALSAYNETKYVLPLRLISNDLAINPARNTSFLAFTILEPIVHISNAGVYNINPDLTSTMDIQIGVPFTNKWDILCNLTEDLSLIDEYNQINKVNFTLLPENAYTAPESVTLQEGVSQITASYQLKNNLVPGNYILPIKIGSITASQGGVPNNSLVIDEESNVLFCIVKEGNKINKSGWEVIECSSEHAGNEATYMIDDNESTYWHCKFKNEAGSSVPPFHFIIDMKKEITIAQIDLLNRGDGAANNIKWVEFYASNNNSEWDKIGAGDFNDEGTRATFRYYVKSTKARYLKLIIPEGYGNNCPPAAIRELTVYGLEGNN,glycan array binding signal (z-score),[1],-0.138
same,glycan array binding signal (z-score),[2],-0.112
same,glycan array binding signal (z-score),[3],-0.106
same,glycan array binding signal (z-score),[4],-0.269
same,glycan array binding signal (z-score),[5],-0.002
same,glycan array binding signal (z-score),[6],-0.289
same,glycan array binding signal (z-score),[7],0.032
same,glycan array binding signal (z-score),[8],-0.33
same,glycan array binding signal (z-score),[9],-0.21
same,glycan array binding signal (z-score),[10],-0.135
same,glycan array binding signal (z-score),[11],-0.323
same,glycan array binding signal (z-score),[12],-0.352
same,glycan array binding signal (z-score),[13],0.446
same,glycan array binding signal (z-score),[14],-0.119
same,glycan array binding signal (z-score),[15],-0.207
same,glycan array binding signal (z-score),[16],-0.249
same,glycan array binding signal (z-score),[17],-0.26
same,glycan array binding signal (z-score),[18],-0.096
same,glycan array binding signal (z-score),[19],-0.248
same,glycan array binding signal (z-score),[20],-0.026
same,glycan array binding signal (z-score),[21],0.146
same,glycan array binding signal (z-score),[22],-0.246
same,glycan array binding signal (z-score),[23],-0.106
same,glycan array binding signal (z-score),Fuc(a1-3)GlcNAc,0.116
same,glycan array binding signal (z-score),[24],0.033
same,glycan array binding signal (z-score),[25],-0.105
same,glycan array binding signal (z-score),[26],-0.122
same,glycan array binding signal (z-score),[27],-0.273
same,glycan array binding signal (z-score),[28],0.36
same,glycan array binding signal (z-score),[29],-0.295
same,glycan array binding signal (z-score),[30],-0.137
same,glycan array binding signal (z-score),[31],-0.04
same,glycan array binding signal (z-score),[32],-0.339
same,glycan array binding signal (z-score),[33],-0.335
same,glycan array binding signal (z-score),[34],-0.354
same,glycan array binding signal (z-score),[35],-0.344
same,glycan array binding signal (z-score),[36],-0.17
same,glycan array binding signal (z-score),[37],-0.257
